Data taken from the supplement of paper PMC11417369.
± gives the standard deviation of the averaged measurements. The list shows a part of the results.

Tested on: PfAP2-LT AP2 domain (GST-tagged)
Experiment: gcPBM binding intensity (ln(normalized median fluorescence intensity)); higher = stronger DNA binding
Procedure, shortened: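 The highest Masliner-normalised natural-log median intensity across replicate spots of either probe orientation is reported as binding intensity. GST-tagged P. falciparum DNA-binding domains expressed in E. coli were applied for 1 h to an Agilent 4 × 180k array of primer-extended double-stranded 36-bp intergenic genomic probes plus negative controls, and bound protein was detected with Alexa488 anti-GST antibody and scanned at 488 nm.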

Sequence	gcPBM binding intensity (ln)
AAAATATAGGTATGCACACACATATACTTCTGTGCA [CACACA_site1409]	9.47 ± 0.34
TAAATACAGAGGAAAATACACACGTATATATATAAA [CACACA_site3410]	9.21 ± 0.45
AAAAAAAATTTAATTGCACACAGGAAAATATAATTT [CACACA_site3810]	8.78 ± 0.38
TTAATACCCAGACACACACACACAAAATAAAATACA [CACACA_site7968]	10.1 ± 0.48
TATAAATATACAAACACACATACAAACATATATATA [CACACA_site1120]	9.24 ± 0.37
CAATGTTAACATATTACACACATATGTATTTATAAC [CACACA_site7314]	9.07 ± 0.33
TAAATATATAATAAATGTACATATTAATATTATGGT [XGTACX_site1498]	8.77 ± 0.48
ATATGATCATTTTATCATTTTGCTTTTTCTTTTTTT [CACACA_negctrl_site1325]	8.69 ± 0.48
AATTTTGGAACGTGCACACATATGTAATATATATAT [CACACA_site3067]	9.21 ± 0.32
ATCGTGTTAAATGTTGTGCACATATAAATTACAAAA [GTGCAC_site9822]	8.87 ± 0.48
TTTTTTTAATGATATTGTACATTAATAAAAAATATG [XGTACX_site1719]	8.12 ± 0.59
ATTTGATATATAATAATACACACTTACATAATTAAT [CACACA_site290]	8.87 ± 0.46
TCTTTTTCAAGATGACGTACTTAGATTAATATAAAA [XGTACX_site3931]	8.21 ± 0.33
ATTTTATTTTCATATGAACACACATATATATATTAT [CACACA_site8741]	9.4 ± 0.4
CTGCGTTTAATATGCGTGCACCTTGGTTTTATATCT [GTGCAC_site9525]	9.23 ± 0.36
AACAACCAAAGGCACACACACAAAAAAAAAAATATA [CACACA_site399]	9.71 ± 0.64
TTTTAAATATGCCATACACACTACTATATAATAAAT [CACACA_site5119]	8.69 ± 0.45
AAAAAAAAAAAATATTGTAGAATATGATGACTTTGT [GTGCAC_negctrl_site554]	8.52 ± 0.54
ACATAAGATGAAAAATGTACATTCAAAAAATGAAAT [XGTACX_site3227]	8.97 ± 0.42
ACAAAACTGTCTTTCACACAGAAATAAAAAAAAAAA [CACACA_site5829]	8.44 ± 0.55
TGATAAGGATGTGAATTACTCAAAGGAAGTAATCAT [CACACA_negctrl_site1432]	8.73 ± 0.49
AAATTTCATGGGTATTGTACATAATTTTATTATATA [XGTACX_site4988]	8.69 ± 0.36
TATTTACACCCATGCGCACACATAAATAAATAATAG [CACACA_site5350]	9.23 ± 0.42

Sequence	gcPBM binding intensity (ln)
TATATATATGTATGTGGTACTTATATTATATACATA [XGTACX_site4550]	8.71 ± 0.44
ATACATATGGTGGATCGTACATATATATAATATGTA [XGTACX_site8631]	8.94 ± 0.44
ACAGAAAATAAAATTTGTACATATATAGAATAAAGA [XGTACX_site3014]	8.79 ± 0.48
CCATGTAGTGAATAGGTGCATATCAAAAAAAAAAAA	8.69 ± 0.59
AGAGAAAAAAAAAATTGTACGTATGTAATAATATGC [XGTACX_site2981]	9.06 ± 0.52
AGATATTATTTATATATTTATATATATATATAGATA [TGCATGCA_negctrl_site77]	8.55 ± 0.39
TAAATATCAAGACACACACACAAAAGTGAATAAATA [CACACA_site7723]	9.53 ± 0.38
TTCTTTTTAAATTACACACACATATATATATGTATA [CACACA_site3515]	9.32 ± 0.41
AAAGTAAAAGAAAGCACACACACATGGATTTATGTA [CACACA_site5997]	9.5 ± 0.28
TGTTGTATTGAAGCTAAAAAATGAGGCAAAAAAAAA [CACACA_negctrl_site1189]	8.51 ± 0.51
ATTTATGAGTAATACACACACTTGTGGATATATTAC [CACACA_site7735]	9.07 ± 0.35
ACTTCAAAAAAAAAAAAATATATATATATATATTAT [GTGCAC_negctrl_site158]	8.54 ± 0.33
TTTATATAATATAAATTTTTTTTGCAGTAATAAAAA [TGCATGCA_negctrl_site570]	7.96 ± 0.39
TTATACACAAAAAAAAAAATATATATATATATATAT [XGTACX_negctrl_site5]	9.7 ± 0.15
CTTTTAATGGTGTAAAGTACTTTCTTAAGGTTCAAA [XGTACX_site8423]	8.43 ± 0.38
TTTAATTATTAAATGGTGCACTTGAAATATAAAAAT	8.54 ± 0.48
TATACAACGTTAAGCACACACAAAAAAAATTTAATA [CACACA_site3086]	9.12 ± 0.4
AAGTTATATAAAGGAACACACATTTGATTTTATTTT [CACACA_site6814]	8.76 ± 0.52
ATATATGGGGCGCAGGAAAAGAGTTTTGGAAATAAA [CACACA_negctrl_site1265]	8.98 ± 0.55
ATTTAAATTATAAAATGTACATTTAACAAATTTTAT [XGTACX_site770]	8.45 ± 0.47
TGTAATCTGGAGAAAAGTACACAGTATCTGGTAGCT [XGTACX_site2039]	8.87 ± 0.38
TAACATTATATATATTGTACATAGTAAATATTATAT [XGTACX_site5421]	8.73 ± 0.33
ATTATTTATTATTTCTGTACGTATAAAAATAACATT [XGTACX_site1671]	8.65 ± 0.38

Sequence	gcPBM binding intensity (ln)
ATAAAACATAAAAATCGTACAAAGGAGGATATAAGG [XGTACX_site420]	9.22 ± 0.42
TGGAGGTCAGTTCACAGTACCCAGAAAACTCTACGA [XGTACX_site2561]	8.57 ± 0.49
AAAATGATGTTAATTACACACATCATCTCATAAACA [CACACA_site3017]	8.91 ± 0.25
AAGGGAATATACCTTACACACAAAAATGCAGATATA [CACACA_site1451]	9.26 ± 0.45
AAAGTAAAAAAAAAAACATGCACATATTTACTTTAT [TGCATGCA_site849]	8.87 ± 0.47
TTTTTTTTGGTTTTCATGCACACAATTTATAAATCT [CACACA_site3107]	9.14 ± 0.38
CTAATCAAAATAAATTAACACACAATTTTAATATTG [CACACA_site7887]	8.58 ± 0.47
ATATACTTACATATTACACACAATATTTTTAAATGT [CACACA_site3627]	9.22 ± 0.37
GTTAATATACTTAATACACACACGAATATATATAAA [CACACA_site1181]	9.26 ± 0.29
ATTCTATACATATATATACACACGTAGTTTCTATTT [CACACA_site2223]	9.04 ± 0.43
AAAAAAAAAAAGAAGGAAACATTTGACCAAAAATAT [GTGCAC_negctrl_site404]	8.63 ± 0.55
AATTATATATAAAGAAGTACTATTTCAAGGAGTTTT [XGTACX_site3837]	8.54 ± 0.52
AATAAAACATCATCATGTACAAAATTCGTCTTTGTA [XGTACX_site4821]	8.81 ± 0.39
CAAAATATATATGACACACACAAAAAAAGTATATTA [CACACA_site1589]	9.25 ± 0.49
TCAAATTTTCAACATTGTACATAAATGTATAAATAT [XGTACX_site6042]	8.62 ± 0.33
ATGTCACAATTTTTCACACACAAAATTTAAATACAT [CACACA_site5168]	9.11 ± 0.4
TATTATTATATATATAGTACATAAAATATAAAAAAA [XGTACX_site2060]	8.6 ± 0.47
TTTTTTTTTTAAATGTGTCCTCATTATAATATATGT [XGTACX_site5331]	8.65 ± 0.47
TTTTTTAAATTATATTATAGCAAATAAATATTAAAA [CACACA_negctrl_site1655]	7.8 ± 0.49
GCATTATTATATATTTGTACATATTTTTTTTTAAAA [XGTACX_site5436]	8.67 ± 0.42
TAATTATGCGGACACACACACACACCCAACTAAAAA [CACACA_site5427]	9.9 ± 0.26
TTTTTATTTTCATATGTGCACTTATATATATATATA	9.07 ± 0.36
TTTTTATATAAGAAAAAATTATAACAATTTGTTAAT [XGTACX_negctrl_site422]	8.03 ± 0.46

Sequence	gcPBM binding intensity (ln)
TTCGCTGTTTTAATTAGTACTTATATATAATATTAT [XGTACX_site1149]	8.93 ± 0.52
TATTGATATATATATATATATATATGTATATACTTA [GTGCAC_negctrl_site111]	9.15 ± 0.31
CTAAACCTTTTGAGCACACATATATATATATATATA [CACACA_site1782]	9.745 ± 0.05
AAATTTTAATTAGACTGTACACATTTTAGAATAATT [XGTACX_site4819]	8.59 ± 0.34
TTTTATGTTTTAAAATGTACGTGTCAATGAATAAGT [XGTACX_site6239]	8.52 ± 0.42
TTTTATTTTTAAAATTGTACATTATTATTGTTATTT [XGTACX_site1439]	8.7 ± 0.54
TATTATAGTCCGACTTTTTAATTTCTTTATTGTTTT [CACACA_negctrl_site1381]	8.78 ± 0.47
TGAATATTCATATGCACACAAATTAATATACATAAT [CACACA_site442]	9.05 ± 0.36
GGCTAAAAGTTGCACACACACAAAAAAAAAAAAAAA [CACACA_site7531]	9.37 ± 0.51
TATTTGTTCTGATCCTTTTATTCAACTTTTTTTTTT [CACACA_negctrl_site978]	8.74 ± 0.55
ACCTTAATTATAATAACACACGAAAAGTGGACACAT [CACACA_site1750]	9.12 ± 0.35
AAAAAAAAGTTGTAAGTGCATGTATATAATAATATT	8.79 ± 0.49
TGATCACATAATAAATGTACAAAAAAAAATTAATAA [XGTACX_site5867]	8.65 ± 0.49
AGAACTTAATGCTGCACACAAAAAAAAGGAAAAATA [CACACA_site1353]	9.12 ± 0.47
TTCTTTAAAATGATATACGTTATAAATATATATATA [XGTACX_negctrl_site256]	8.42 ± 0.38
AACTTGTATATATACACACACACACTGTCTTTTTTT [CACACA_site1963]	9.91 ± 0.26
TTTAGATAATTCATTACACACATGTATATATATATA [CACACA_site3483]	9.05 ± 0.18
TAAGGAAGAAGAAAAAGTACTAAAGGTATAAATGCG [XGTACX_site2628]	8.76 ± 0.62
GCAACCTTGTGCAAATGTACAAAAAAAAAAAAAAAA [XGTACX_site679]	8.49 ± 0.49
AAAATTTCTTATTTTGTACACACAATAAATATTCAC [CACACA_site8464]	8.98 ± 0.47
